# According to publication PMC12136788:
# The other results are listed elsewhere or left out.
# T1: UNK ZnF1-6 (called full-length) (human, UniProt Q9C0B0 30-357)
# T1 sequence: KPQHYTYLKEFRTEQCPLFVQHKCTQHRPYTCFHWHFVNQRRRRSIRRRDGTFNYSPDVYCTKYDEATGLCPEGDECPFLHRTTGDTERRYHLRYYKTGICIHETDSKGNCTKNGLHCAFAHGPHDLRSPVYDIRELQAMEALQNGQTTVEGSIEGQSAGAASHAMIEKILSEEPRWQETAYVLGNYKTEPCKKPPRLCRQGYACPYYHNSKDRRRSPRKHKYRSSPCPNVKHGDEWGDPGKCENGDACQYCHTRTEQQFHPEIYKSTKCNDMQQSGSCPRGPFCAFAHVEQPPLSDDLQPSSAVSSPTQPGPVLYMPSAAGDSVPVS
# B1: chr1:203709306:203709407:+|CDS|ENSG00000058668|msi1|total|mutant (ssRNA)
# RNA: GGGAGUUCUACAGUCCGACGAUCUCCAGAGAAGGAGGGAGGCCUGCCUCGGCAGGUGGGCAACAAGACCGAGUGUGCUCUGCCCGGCUUUGUCACAGAUCUGAAGCAGGAUUAUCAGGCUGUGCGUAAUGAAGUGCCCGAGGACAACAGAGGAUUGAGCAUCA
# B2: ENSG00000099904:stop:overlap|stop_codon|ENSG00000099904|stop_codon|NA|stop_codon (ssRNA)
# RNA: GGGAGUUCUACAGUCCGACGAUCGGGCCAUGUGCCGCCUGCACUUGGCUGCCUCCAGUCUUUUCCCCAGCCUCUCGGGGCCCUAGCAGGAUGACAAGUAGGCGGCUCUGGGGCCCAGGACAGCCCAGCUGGGGACCCAGGAGGCAACAGAGGAUUGAGCAUCA
# B3: chr12:39370042:39370220:-|CDS|ENSG00000139116|unk|FALSE|unique (ssRNA)
# RNA: GGGAGUUCUACAGUCCGACGAUCUACUUUUGACUAUGUAUUUGACAUUGACUCCCAGCAAGAGCAGAUCUACAUUCAAUGUAUAGAAAAACUAAUUGAAGGUUGCUUUGAAGGAUACAAUGCUACAGUUUUUGCUUAUGGACACAACAGAGGAUUGAGCAUCA
# B4: chr11:95167508:95167609:-|3pUTR|ENSG00000149212|unk|total|mutant (ssRNA)
# RNA: GGGAGUUCUACAGUCCGACGAUCAAUAAUGGAGACUGAAUGAGGCGGUUUGUAUUAAAUUAUAUGCCAUGAAGUGUUCAUUUCCGCUUUAACCUAAUUAUGACUGUACCACCAUGAAGUACAGAAUGAAAAAUUAUAUAUAUGCAACAGAGGAUUGAGCAUCA
# B5: chr17:72125515:72125616:+|3pUTR|ENSG00000125398|msi1|total|mutant (ssRNA)
# RNA: GGGAGUUCUACAGUCCGACGAUCUAAUUAAAACAAAAAAAAAUUCUUUUUUUUUUUUUUUUCCAAUUUUACCUUCUUUAAAACCGGUUGUUGGAGCUUUCCUCAAAGGGUAUGGUCAUCUGUUGUUAAAUUAUGUUCUUAACUCAACAGAGGAUUGAGCAUCA
# B6: chr4:78448087:78448188:+|CDS|ENSG00000138759|msi1|FALSE|unique (ssRNA)
# RNA: GGGAGUUCUACAGUCCGACGAUCGCCUCUGGAGAAUGGGAGAGUUUUAGUCCAGGGCUCAACCUUCACCUACCAGGAUAUCCUAGCUGGGCUGGUUGGGUAUGUGCCUAGUGUCCCUGGCAUGGUCGUGGAUGAGUUCCAGUUCAACAGAGGAUUGAGCAUCA
# Molecular target: T1, UNK ZnF1-6 (called full-length)
# Assay: nsRBNS (natural sequence RNA bind-n-seq); RBNS binding buffer (assumed for nsRBNS): 25 mM Tris pH 7.5, 150 mM KCl, 3 mM MgCl2, 0.01% Triton X-100, 500 ug/ml BSA, 20 U/ml SUPERase-In, 4 C; UNK is unkempt and MSI1 is Musashi-1; names of the RNAs are library labels; protein concentration not given here; high values mean tight binding
row,Binder,binding signal [enrichment R]
1,B1,0.691
2,B2,1.2
3,B3,0.816
4,B4,0.731
5,B5,0.985
6,B6,1.93
